Data as given in PubChem BioAssay AID686971 (National Center for Advancing Translational Sciences (NCATS), 2013).
In all, about 360,000 compounds went through this assay and about 7,500 (2.1%) were called active. The shares of active, inactive and inconclusive entries below differ from those in the screen. The call rests on the fitted dose curve; in most records, active means well fitted cell-killing curve with a large enough effect; inconclusive means small, poorly fitted or top-dose-only effect, or effect the other way, or another doubt; inactive means no such curve, though single readings can be large or run the other way. No potency is given beside an inconclusive call; the fits are too rough.

Assay: qHTS for induction of synthetic lethality in tumor cells producing 2HG: qHTS for the HT-1080-IDH1KD cell line;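 on activity, negative = toxicity: 0% = DMSO wells and -100% = cell-free medium wells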
Conditions: HT-1080 IDH1 knockdown viability, ATP luminescence, 48 h; activity, negative = toxicity: at 46.1 µM (top of the series) unless noted
Procedure, shortened: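 Assay cells: HT-1080 with IDH1 knockdown, 750 per well, RPMI/5% FBS. Exposure: 48 h at 37 °C following 2 h pre-incubation. Read: CellTiter-Glo luminescence; fitted concentration-response, curve class assigned.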
Potency means the concentration at half of the fitted maximal effect; tags describe the fitted curve by direction and shape.

| SMILES | Potency | activity, negative = toxicity |
| --- | --- | --- |
| CCOc1ccc(C(O)(CCC(C)C)C(CN2CCOCC2)c2ccccc2)cc1 (configuration not stated) | active: 18.4 µM |  |
| COc1cc(CNCCc2ccccc2)cc(Cl)c1OCc1ccccc1 | inconclusive [cytotoxic, single point] |  |
| CN(C)CCNc1ncnc2c1sc1nc(-c3ccccc3)c3c(c12)CCCC3 | active: 18.4 µM |  |
| O=C1CC(c2ccccc2)CC(O)=C1C=NC1CCCC1 (configuration not stated) | inconclusive [cytotoxic, single point] |  |
| COc1cccc(C(=O)Nc2ccc(-c3nnc(-c4ccco4)o3)cc2)c1 | inconclusive [cytotoxic, single point] |  |
| CC(C)c1ccc(NC(=S)NCCc2c[nH]c3ccccc23)cc1 | inconclusive [cytotoxic, single point] |  |
| COc1cc(C(=O)NCC(c2ccccc2)N(C)C)ccc1OCc1c(C)noc1C (configuration not stated) | inconclusive [cytotoxic, single point] |  |
| COc1ccc(OC)c(S(=O)(=O)ON2C(=O)c3ccccc3C2=O)c1 | active: 4.11 µM |  |
| CC1CC(C)(C)NC(=S)N1CCC(=O)Nc1ccc2c(c1)OCCO2 (configuration not stated) | inconclusive [cytotoxic, full curve, poor fit] |  |
| CCn1cc([N+](=O)[O-])c(C(=O)N2N=C(c3ccc4ccccc4c3)CC2c2cc(Br)ccc2O)n1 (configuration not stated) | inconclusive [cytotoxic, single point] |  |
| CC(C)(C)c1ccc(-n2ncc3c2CCCC3NC(=O)CN2CCCCC2=O)cc1 (configuration not stated) | inconclusive [cytotoxic, single point] |  |
| COc1cc2ccnc(C=O)c2cc1OC | inconclusive [cytotoxic, partial curve] |  |
| C=CCNc1nc(NCCCN2CCCC2=O)c2sc(-c3ccccc3)cc2n1 | inconclusive [cytotoxic, single point] |  |
| COc1ccc(-c2nnn(Cc3ccccc3)n2)cc1OC | inactive |  |
| O=C(Nc1ncccn1)c1ccc([N+](=O)[O-])cc1[N+](=O)[O-] | inactive |  |
| O=C(Nc1ccc(N2CCN(C(=O)c3ccco3)CC2)cc1)c1cccs1 | inactive |  |
| CCN(CC)C(=O)c1sc(N2C(=O)Nc3ccccc3N2O)c(C(=O)OC)c1C | inactive |  |
| c1ccc(C2Nc3ccccc3C3OCCCC23)cc1 (configuration not stated) | inconclusive [cytotoxic, single point] |  |
| CCc1nc2c(OCc3ccc(C(=O)N(C)C)cc3)cccn2c1N(C)C(=O)c1ccc(C)cc1 | inactive |  |
| O=[N+]([O-])c1ccc2c(c1)C(=NO)c1cc(F)ccc1-2 | inactive |  |
| Nc1ncnc2c1ncn2[C@@H]1O[C@H](COS(=O)(=O)O)[C@@H](O)[C@H]1O | inactive |  |
| COc1cccc(CN2CCN(C(=O)Nc3ccc([N+](=O)[O-])cc3)CC2)c1 | inconclusive [cytotoxic, single point] |  |
| C=CC[C@@H](Cc1ccc(F)cc1)C(=O)OC[C@@H]1CCCN1C(=O)[C@@H](CC=C)CC(=O)N(CCO)Cc1ccccc1 | inconclusive [cytotoxic, single point] |  |
| CC(CCc1ccccc1)NC(=O)C(Cc1ccccc1)NC(N)=O (configuration not stated) | inactive |  |

| SMILES | Potency | activity, negative = toxicity |
| --- | --- | --- |
| Cc1ccc(-c2csc(N(CCCN(C)C)C(=O)c3ccco3)n2)cc1 | inconclusive [cytotoxic, single point] |  |
| Cc1ccc(C(=O)N(c2ccccc2)C2CC(C)N(C(=O)c3ccco3)c3ccccc32)cc1 (configuration not stated) | inconclusive [cytotoxic, single point] |  |
| CC1CCN(CCCCOc2ccc(C(=O)c3ccccc3)cc2)CC1 | inconclusive [cytotoxic, single point] |  |
| O=C(C1CCC(CNc2nc(=S)[nH]c3ccccc23)CC1)N1CCN(c2ccc(F)cc2)CC1 (configuration not stated) | inconclusive [cytotoxic, single point] |  |
| COc1ccc(N(CC(=O)NCc2ccccc2)S(=O)(=O)c2c(C)n[nH]c2C)cc1 | inactive |  |
| COc1ccc(-c2[nH]c(-c3cccc(OC)c3)nc2SCC(=O)NCc2ccco2)cc1 | inactive |  |
| Cc1ccc(S(=O)(=O)N2CCCCC2CCNC(=O)C(=O)NCc2ccccc2C)cc1 (configuration not stated) | active: 16.4 µM |  |
| Cc1ccc(C(=O)O/N=C(\N)c2ccccn2)cc1C | inconclusive [cytotoxic, single point] |  |
| O=C(Nc1ccnn1C1CCN(CCCC2CCCC2)CC1)c1ccccc1Cl | inactive |  |
| COc1ccc2[nH]c3nc(SCc4nnc(-c5ccccc5)o4)nnc3c2c1 | inconclusive [cytotoxic, single point] |  |
| CCOC(=O)C1=CC[C@@H](c2ccccc2)N(S(=O)(=O)c2ccc(C)cc2)[C@H]1C#N | inconclusive [cytotoxic, single point] |  |
| Cc1cc2nc(-c3cccc(NC(=O)c4ccc(Br)o4)c3C)oc2cc1C | inconclusive [cytotoxic, single point] |  |
| COc1ccc(C(=O)Nc2ccc(NC(=O)c3ccccc3)cc2)cc1S(=O)(=O)N1CCOCC1 | inconclusive [cytotoxic, partial curve] |  |
| CCn1c(=O)n(CC)c2cc(N3CCCC3)c(NC(=O)c3cccc(Cl)c3)cc21 | inconclusive [cytotoxic, single point] |  |
| O=C1[C@H](Oc2ccccc2)[C@@H](c2ccccc2)N1c1ccncc1 | inconclusive [cytotoxic, single point] |  |
| Cc1ccc(-c2nc(NCCCO)c3ccccc3n2)cc1 | inconclusive [cytotoxic, single point] |  |
| O=C(O)c1cc(-c2ccco2)nc2ccccc12 | inactive |  |
| Cc1cccc(C)c1NC(=O)Nc1nc(CN(C)C)cs1 | inactive |  |
| CN1CCN(C(=O)/C(=C/c2ccc(F)cc2)NC(=O)c2ccccc2)CC1 | inconclusive [cytotoxic, single point] |  |
| NC(Cc1ccccc1)c1csc(Nc2nncc3ccccc23)n1 (configuration not stated) | inconclusive [cytotoxic, single point] |  |
| COc1ccc(Cl)cc1C(=O)Nc1ccc(CN2CCCCC2)cc1 | inconclusive [cytotoxic, partial curve] |  |
| N#CCC1c2ccccc2CCN1C(=O)Nc1cccc(Cl)c1 (configuration not stated) | inconclusive [cytotoxic, single point] |  |
| CNc1ncnc(Sc2nc(N)nc3nc[nH]c23)c1[N+](=O)[O-] | active: 1.3 µM |  |
| CC(C)C[C@H](CO)Nc1nc(N(C)c2cccc(Cl)c2)c2ncn(C(C)C)c2n1 | inconclusive [cytotoxic, single point] |  |

| SMILES | Potency | activity, negative = toxicity |
| --- | --- | --- |
| CN1CCc2cccc3c2[C@@H]1Cc1ccc(O)c(O)c1-3 | active: 23.1 µM |  |
| CCN1CCC(CNCc2cn(-c3ccc(OC)cc3)nc2-c2ccccc2Cl)C1 (configuration not stated) | inconclusive [cytotoxic, single point] |  |
| COc1cc(C2C(C#N)=C(N)Oc3n[nH]c(C)c32)ccc1OC(=O)c1ccccc1 (configuration not stated) | inactive |  |
| CCc1nc2c(OCc3cc(Cl)cc(Cl)c3)cccn2c1N(C)C(=O)c1ccc(OC)cc1 | inconclusive [cytotoxic, single point] |  |
| CCOCCCNc1ncnc2c1[nH]c1ccccc12 | inactive |  |
| CN1CCN(c2ncnc3c2ncn3[C@H]2CN(Cc3cccnc3)C[C@@H](CO)O2)CC1 | inactive |  |
| Cn1c(Sc2ccc(Br)cc2)c(C=O)c2ccccc21 | active: 25.9 µM |  |
| COc1ccc(C2OC(CCc3ccccc3)CC3=C2C(=O)OC(C)(C)O3)cc1 (configuration not stated) | inactive |  |
| COCCNC(=O)/C(C#N)=C/c1cccc(NC(=O)c2ccccc2Cl)c1 | inconclusive [cytotoxic, partial curve] |  |
| COc1ccc(CN2C(=O)C(C)Nc3ncnc(N4CCOCC4)c32)cc1 (configuration not stated) | active: 14.6 µM |  |
| O=C(CC1SC(=O)N(c2ccccc2)C1=O)Nc1ccccc1 (configuration not stated) | inconclusive [cytotoxic, single point] |  |
| Cc1ccc(-c2csc(N3CCN(CCCn4c(-c5ccncc5)nc5ccccc54)CC3)n2)cc1 | inconclusive [cytotoxic, single point] |  |
| CC/C(=N\NC(=O)c1cc(C)nc2ccccc12)c1ccc(C)s1 | inconclusive [cytotoxic, full curve] |  |
| CCc1ccc(S(=O)(=O)N2c3ccc(C)cc3C3CN(C)CCC32)cc1 (configuration not stated) | inactive |  |
| O=C(Nc1nc2ccccc2s1)c1cc(-c2ccccc2)nn1-c1ccccc1 | inconclusive [cytotoxic, single point] |  |
| N#C/C(=C/C=C/c1ccccc1)C(=O)Nc1ccccc1 | inconclusive [cytotoxic, single point] |  |
| O=c1c2ccccc2c(=O)n2n1Cc1ccccc1C2 |  | inconclusive: 31.4% |
| CCN(CC(=O)Nc1ccc2c(c1)OCCO2)C(=O)c1ccc(Cl)cc1Cl | inactive |  |
| O=C(N/N=C/c1ccccn1)c1cc(-c2ccc3ccccc3c2)n[nH]1 | active: 16.4 µM |  |
| Cc1ccc(Cl)cc1N1CCN(C(=O)Cn2ccc3ccccc3c2=O)CC1 | inconclusive [cytotoxic, single point] |  |
| COc1ccc(-c2[nH]ncc2/C=N/NC(=O)c2cc(Br)ccc2O)c(OC)c1 | inconclusive [cytotoxic, single point] |  |
| Cc1cc(OCC(=O)O/N=C(\N)c2ccccc2)cc(C)c1Cl |  | inconclusive: 17% |
| CS(=O)(=O)Nc1cccc(-c2ccc3nncn3c2)c1 | inactive |  |
| COc1cccc(-c2cnc3c(NC=O)cc(-c4cccc(NC(C)=O)c4)cn23)c1 | inconclusive [cytotoxic, single point] |  |
